From PMC4642984
Results are given in words; binding and its absence hold for the method and conditions named. In cells and extracts the contact can be indirect. Some binding calls cover weakened binding; strength is not graded here.

Amino acid sequences for entries named in this document (tags omitted). A change or cut given only in a name is not applied to a line headed by its entry. Chains listed by the source or under a name are the forms on record and can include a tag or linker.
in vitro translated 35S-methionine labeled BMAL1 (Q9WTL8-2, form named): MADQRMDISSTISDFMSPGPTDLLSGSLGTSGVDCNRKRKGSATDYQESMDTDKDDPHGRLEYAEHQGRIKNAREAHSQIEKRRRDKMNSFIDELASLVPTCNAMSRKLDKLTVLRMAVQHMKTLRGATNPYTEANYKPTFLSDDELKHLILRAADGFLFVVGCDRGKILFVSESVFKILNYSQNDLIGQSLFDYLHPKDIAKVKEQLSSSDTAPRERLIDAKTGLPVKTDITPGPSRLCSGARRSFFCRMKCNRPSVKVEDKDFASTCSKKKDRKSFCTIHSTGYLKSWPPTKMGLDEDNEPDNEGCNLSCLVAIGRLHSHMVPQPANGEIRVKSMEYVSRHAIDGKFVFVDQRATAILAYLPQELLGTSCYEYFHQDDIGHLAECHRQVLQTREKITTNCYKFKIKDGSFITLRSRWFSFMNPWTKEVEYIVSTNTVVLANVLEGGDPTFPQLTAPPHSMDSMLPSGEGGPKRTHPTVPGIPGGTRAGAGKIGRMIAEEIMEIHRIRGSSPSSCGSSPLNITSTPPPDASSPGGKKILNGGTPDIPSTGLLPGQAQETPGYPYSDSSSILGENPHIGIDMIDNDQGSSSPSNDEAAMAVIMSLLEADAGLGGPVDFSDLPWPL
ElucC-mBMAL1-K537R (Q9WTL8-2, form named): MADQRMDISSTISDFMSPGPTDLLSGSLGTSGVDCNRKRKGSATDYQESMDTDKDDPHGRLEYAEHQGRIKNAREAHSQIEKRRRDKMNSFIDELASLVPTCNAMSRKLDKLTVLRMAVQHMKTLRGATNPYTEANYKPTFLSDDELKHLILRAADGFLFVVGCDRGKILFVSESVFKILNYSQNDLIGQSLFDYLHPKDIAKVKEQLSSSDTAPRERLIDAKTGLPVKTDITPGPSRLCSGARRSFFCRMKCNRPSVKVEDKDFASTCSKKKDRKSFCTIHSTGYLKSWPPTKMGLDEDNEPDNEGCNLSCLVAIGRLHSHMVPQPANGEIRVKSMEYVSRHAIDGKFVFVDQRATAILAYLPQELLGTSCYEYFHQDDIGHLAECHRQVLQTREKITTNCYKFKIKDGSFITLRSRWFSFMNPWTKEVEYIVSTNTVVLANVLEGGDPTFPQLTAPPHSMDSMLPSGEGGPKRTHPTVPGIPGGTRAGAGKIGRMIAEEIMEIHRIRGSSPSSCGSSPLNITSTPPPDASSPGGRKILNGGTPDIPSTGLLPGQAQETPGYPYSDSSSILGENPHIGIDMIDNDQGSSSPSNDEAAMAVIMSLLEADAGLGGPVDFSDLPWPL
UniProt P67870: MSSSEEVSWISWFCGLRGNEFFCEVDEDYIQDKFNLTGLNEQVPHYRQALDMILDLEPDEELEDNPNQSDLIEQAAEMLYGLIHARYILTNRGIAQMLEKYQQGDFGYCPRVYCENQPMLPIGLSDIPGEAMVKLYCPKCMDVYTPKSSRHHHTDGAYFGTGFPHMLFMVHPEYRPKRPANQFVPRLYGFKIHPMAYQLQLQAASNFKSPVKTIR
UniProt P68400: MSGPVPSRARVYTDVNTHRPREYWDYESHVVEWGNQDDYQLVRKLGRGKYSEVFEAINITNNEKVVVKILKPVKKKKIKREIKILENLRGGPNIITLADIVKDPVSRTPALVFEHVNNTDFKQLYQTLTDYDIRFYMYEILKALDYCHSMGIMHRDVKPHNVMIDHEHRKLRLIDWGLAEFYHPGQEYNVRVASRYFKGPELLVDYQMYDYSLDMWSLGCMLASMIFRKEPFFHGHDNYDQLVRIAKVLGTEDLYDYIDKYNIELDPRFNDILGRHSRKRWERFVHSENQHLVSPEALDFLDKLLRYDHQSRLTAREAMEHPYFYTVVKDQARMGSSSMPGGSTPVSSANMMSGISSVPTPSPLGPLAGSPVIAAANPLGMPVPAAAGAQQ
UniProt P67871: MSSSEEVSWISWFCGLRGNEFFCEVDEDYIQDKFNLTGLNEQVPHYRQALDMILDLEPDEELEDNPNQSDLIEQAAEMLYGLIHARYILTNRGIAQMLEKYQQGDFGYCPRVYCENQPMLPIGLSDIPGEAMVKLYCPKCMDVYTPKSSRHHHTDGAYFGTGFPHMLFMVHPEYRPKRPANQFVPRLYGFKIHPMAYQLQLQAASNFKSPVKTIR

Legend:
[1] = molecular target: BMAL1 (mouse (endogenous in MEFs)) (UniProt Q9WTL8); test: co-IP; lysates of CRYdKO (Cry1-/-/Cry2-/-) mouse embryonic fibroblasts; BMAL1-IP and CK2β-IP, immunoblot
Myc-BMAL1-WT = Myc-BMAL1-WT (UniProt Q9WTL8); test: co-IP; Myc-BMAL1 IP from supernatants of Dex-synchronized Bmal1-/- MEFs stably expressing Myc-BMAL1-WT, -S90A or -K537R, harvested 22 h after treatment; immunoblot for CK2β, CRY1/2 and CLOCK
[2] = molecular target: BMAL1 (mouse (endogenous in MEFs)) (UniProt Q9WTL8); test: co-IP; endogenous proteins from lysates of mouse embryonic fibroblasts (WT; also BMAL1-deficient, SIRT1KO, and CRYdKO stably expressing Myc-CRY1; unsynchronised or Dex-synchronised, harvested at intervals); IP with anti-BMAL1, anti-CK2α, anti-CK2β or anti-CRY1/2, immunoblot
McLuc1-BMAL1 (mouse) = McLuc1-BMAL1 (mouse) (UniProt Q9WTL8); test: split reporter; Split Luc complementation in living Dex-synchronized U-2OS cells expressing ELucN-CK2β and McLuc1-BMAL1; real-time bioluminescence over circadian time
[3] = molecular target: ElucC-mBMAL1-K537R (mouse) (UniProt Q9WTL8); test: split reporter; Split Luc complementation in living Cos7 cells transfected with ELucN-CK2β and ELucC-BMAL1 (WT or mutant) together with pcDNA, Myc-HA-CRY1, Myc-CRY2 or FLAG-CRY1 (WT or Cd1-4); real-time bioluminescence, averaged peak values
ELucC-BMAL1 (mouse) = ELucC-BMAL1 (mouse) (UniProt Q9WTL8); test: as above
GST-CK2β = GST-CK2β (UniProt P67870); test: pull-down; purified bacterially expressed GST-CK2 subunits mixed 1:1 with in vitro translated 35S-methionine labeled clock proteins, precipitated with glutathione Sepharose beads, SDS-PAGE and autoradiography; only the target purified
GST-CK2α = GST-CK2α (UniProt P68400); test: as above

Question: For CK2β (from UniProt P67871 1-215), which binding [1] is on record?
Answer: no binding (condition: in CRY1/2-deficient (CRYdKO) MEFs)

Question: And the binding (Myc-BMAL1-WT)?
Answer: binds

Question: And the binding [2]?
Answer: binds

Question: What does the source list for ELucN-CK2β (from UniProt P67870 1-215)?
Answer: binding (McLuc1-BMAL1 (mouse)): binds; binding [3]: binds; binding (ELucC-BMAL1 (mouse)): binds

Question: Which results are given for “in vitro translated 35S-methionine labeled BMAL1 (from UniProt Q9WTL8-2 1-625)”?
Answer: binding (GST-CK2β): binds; binding (GST-CK2α): binds
